SMILES strings stand for the structures. Screen size: about 52,000 compounds; about 4,300 (8.3%) were called active. Rule as the data show it: active = survival mostly below about 52% (no sharp cut-off); inactive = mostly above about 56%. This is one part of the list.

This assay relates to DeltatarO mutant. As to the kind of experiment: S. aureus survival, RN4220 and DeltatarO strains – OD600, teichoic acid synthesis inhibitors, primary screen (AID 463173). The following applies: S. aureus RN4220 wild type/DeltatarO growth, OD600, 18 h, hits give low values, screened at 18.75 µg/mL (by protocol).
Consider `COC(=O)c1ccc2oc(=O)c(S(=O)(=O)c3ccc(C)cc3)cc2c1`, for which the survival is inactive: 95%.
For `CCCC(=O)Nc1cccc(-c2nc3cc(C)c(C)cc3o2)c1C` the value was inactive: 57%.
For `Cc1ccc(CNC(=O)C2CCN(c3nc4ccc(C)cc4[nH]3)CC2)cc1` the value was inactive: 126%.
With `COc1ccc(C(=O)Nc2nccs2)cc1OC`, the survival was inactive: 79%.
For `Cc1ccc(NC(=O)C(C)Sc2nnc(C3CCCCC3)n2C)cc1` (stereo not drawn) the value was inactive: 109%; for `CC(=O)Nc1cccc(-c2nnc(SCC(=O)c3cc([N+](=O)[O-])ccc3Br)o2)c1`, inactive: 91%.
The value for `COc1cc(C(c2c(C)[nH][nH]c2=O)c2c(C)[nH][nH]c2=O)ccc1OC(=O)c1ccccc1F` was inactive: 68%; that for `S=c1[nH]nc(Cc2ccccc2)n1Cc1ccco1` was inactive: 92%; that for `CCCN1CCN(CCCNC(=O)c2cnn(-c3ccc(C)cc3)c2-n2cccc2)CC1` was inactive: 117%.
For `CC(=O)c1cccc(Nc2c3c(nc4nc(-c5cccs5)nn24)CCCC3)c1` the value was inactive: 95%.
As to `Cc1ccc(C(=O)Oc2ccc(/C=N/NC(N)=O)cc2)cc1`, the survival was inactive: 91%.
The value for `O=C(O)/C=C/C(=O)N1CCC(C(=O)c2ccc(F)cc2)CC1` was inactive: 97%; that for `CCc1cccc(NC(=O)c2c(C)oc3ncnc(N4CCCCC4)c23)c1` was inactive: 54%; that for `CCOC(=O)c1c(NC(=O)c2cc3nc(-c4ccc(OC)cc4)cc(C(F)(F)F)n3n2)sc(C)c1C` was inactive: 131%.
The value for `O=C1CN(C(=O)COc2ccc(Cl)cc2Cl)C(c2ccc(F)cc2)c2cc(F)ccc2N1` (stereo not drawn) was active: 47%; that for `COc1ccc(C(=O)c2oc3ccccc3c2NC(=O)c2nc(SC)ncc2Cl)cc1Cl` was inactive: 83%.
`O=C(Nc1ccc2nc(C3CC3)n(Cc3ccccc3)c(=O)c2c1)C1CC1`: the survival is inactive: 80%.
The value for `Cc1ccc2c(c1)c1c(c(=O)n(-c3cccc(Cl)c3)c(=O)n1C)n2C` was inactive: 85%.
The value for `CCSc1ncc(Cl)c(C(=O)Nc2sc(C(C)=O)c(C)c2C(=O)OC)n1` was inactive: 72%; that for `COc1cc(OC)c(NC(=O)c2cnc(N3CCCC3)nc2C)cc1Cl` was inactive: 90%.
Consider `COc1ccc(CNC(=O)c2ccc(Sc3ccc(Cl)cc3)c(NC(C)=O)c2)c(OC)c1`, for which the survival was inactive: 67%.
`Cc1ccc(NC(=O)N2CCN(c3nnc(C)c4c(C)n(-c5ccccc5)nc34)CC2)c(Cl)c1`: the survival was inactive: 97%.
Consider `CCOc1ccc(-c2cccc(NS(=O)(=O)c3ccc(Cl)s3)c2)nn1`, for which the survival is inactive: 92%.
The value for `CCNc1nc(Oc2ccc(OCC(=O)OC)nn2)nc(N2CCOCC2)n1` was inactive: 72%; that for `CCc1ccccc1NC(=O)CCCN1C(=O)COc2ccc(C)cc21` was inactive: 68%; that for `CCOc1ccc2nc(N3CCCC(C(=O)NCc4ccc(OC)cc4)C3)sc2c1` (stereo not drawn) was inactive: 96%.
Consider `CCOC(=O)N1CCc2c(sc(NCc3cccs3)c2C(=O)Nc2cc(OC)ccc2OC)C1`, for which the survival was inactive: 90%.
The value for `CCOC(=O)c1nnn(C(CC)C(=O)Nc2c(C)cccc2C)c1C(=O)OCC` (stereo not drawn) was inactive: 100%.
Turning to `CC(C)c1ccc(Nc2cc(C(=O)NCc3cccs3)c3ccccc3n2)cc1`, the survival is inactive: 93%.
The value for `CC(C)CNC(=O)C1CCN(c2ccc(S(=O)(=O)N3CCOCC3)cc2)CC1` was inactive: 75%; that for `CCN(CC)C(=O)CSc1nnc2[nH]c(=O)cc(C)n12` was inactive: 78%.
The value for `COc1ccc(CCNC(=O)Cn2c(-c3cccs3)cc3cc(F)ccc32)cc1OC` was inactive: 83%; that for `COc1ccc(CCNC(=O)CN2C(=O)COc3ccccc32)cc1OC` was inactive: 126%.
The value for `COc1cccc(CNC(=O)c2ccc(CS(=O)c3ccccc3)o2)c1` (stereo not drawn) was inactive: 120%; that for `CN(C1CCCCC1)S(=O)(=O)c1ccc(S(=O)(=O)N(Cc2cccs2)CC2CCCO2)cc1` (stereo not drawn) was inactive: 59%; that for `COc1ccc(NC(=O)c2oc3ccccc3c2NC(=O)c2cc(OC)c(OC)c(OC)c2)cc1` was inactive: 107%.
`COc1ccc(NC(=O)c2c(C)oc3ccc(O)c(CN4CCCC(C)C4)c23)cc1` (stereo not drawn): the survival was inactive: 87%.
For `Cc1cccc(Oc2nc3c(c(=O)n(C)c(=O)n3C)n2C)c1C` the value was inactive: 84%.
Turning to `CC(C(=O)Nc1cccc(N)c1)n1nnc2ccccc21` (stereo not drawn), the survival was inactive: 65%.
`CCc1ccccc1NC(=O)C(CCSC)NS(=O)(=O)c1ccc2c(c1)oc(=O)n2C` (stereo not drawn): the survival was inactive: 102%.
For `CCOC(=O)N1CCN(C(=O)c2cnn(-c3cccc(F)c3)c2-n2cccc2)CC1` the value was inactive: 102%; for `N#Cc1c(-c2ccccc2)cc(-c2ccccc2)nc1SCC(=O)Nc1ccc(Cl)cc1`, inactive: 127%; for `COc1cc(Cl)c(C)cc1NC(=O)NC1COc2ccccc2C1` (stereo not drawn), inactive: 72%.
The value for `Clc1ccc(NCCC2=CCCCC2)nn1` was inactive: 84%; that for `CCn1cc(CNC(=O)CCCSc2nc(-c3ccco3)cc(C(F)(F)F)n2)cn1` was inactive: 74%; that for `CCc1ccc(-c2ccc3nnc(SCC(=O)Nc4cccc(C(C)=O)c4)n3n2)cc1` was inactive: 76%.
The value for `Cc1cccc(N(CC(=O)N2CCCC2)S(C)(=O)=O)c1` was inactive: 72%.
In the case of `COc1cc(NS(=O)(=O)c2cccs2)cc(OC)c1`, the survival is inactive: 45%.
For `Cc1cc(C)c(OCC(=O)Nc2cccc(-c3nc4ncccc4o3)c2)c(Br)c1` the value was active: 4%; for `CC1(C)C2CCC(C2)C1(C)NC(=O)CNCc1ccco1` (stereo not drawn), inactive: 96%.
The value for `Oc1c(C(c2ccc(Cl)cc2)N2CCOCC2)sc2nc(-c3ccco3)nn12` (stereo not drawn) was inactive: 112%.
For `CC1CCN(S(=O)(=O)c2ccc3nc(N4CCN(c5ccccc5)CC4)ccc3c2)CC1` the value was inactive: 78%.
On to `Fc1cccc(CSc2nc(NCCc3ccccc3)c3ccccc3n2)c1`, for which the survival is active: 20%.
For `COc1ccccc1OCC(=O)Nc1cc(-c2ccc(C)cc2)no1` the value was inactive: 66%; for `COc1ccc(N2CCN(C(=O)c3nn(C)c4c3CSc3ccccc3-4)CC2)cc1`, inactive: 84%.
For `CCCN(C(=O)NCc1noc2ccc(C)cc12)c1ccc(Cl)c(Cl)c1` the value was inactive: 46%.
The value for `CCc1ccc(C(=O)c2cn(CC(=O)Nc3ccc(OC)c(Cl)c3)c3nc(C)ccc3c2=O)cc1` was inactive: 105%; that for `Cc1ccc(Cl)cc1NC(=O)Cn1cc(S(=O)(=O)Cc2ccccc2Cl)c2ccccc21` was inactive: 95%.
